# Source: the antibiotic and cytotoxicity screens of Wong et al. (2023)
# The list shows a part of the results.
# Experiments:
# HSkMC = human skeletal muscle cells; assay: cytotoxicity call (relative viability < 0.9); settings: 10 µM
# HepG2 = assay: cytotoxicity call (relative viability < 0.9); settings: 10 µM
# S. aureus RN4220 = assay: growth inhibition call (relative growth <= 0.2); settings: 50 µM
Compound,cytotoxicity call (HSkMC),cytotoxicity call (HepG2),growth inhibition call (S. aureus RN4220)
COc1ccc(S(=O)(=O)N(C)C[C@H]2Oc3ccc(NC(=O)c4ccncc4)cc3C(=O)N([C@H](C)CO)C[C@@H]2C)cc1,inactive,inactive,inactive
CC(C)NC(=O)N(C)C[C@@H]1Oc2ccc(NS(=O)(=O)c3ccc(Cl)cc3)cc2C(=O)N([C@H](C)CO)C[C@@H]1C,inactive,inactive,inactive
C[C@H]1CN([C@@H](C)CO)C(=O)c2cccc(NS(=O)(=O)c3cccs3)c2O[C@@H]1CN(C)C(=O)Nc1cccc2ccccc12,inactive,active,inactive
C[C@H](CO)N1C[C@H](C)[C@@H](CN(C)C(=O)Nc2ccc3c(c2)OCO3)Oc2ccc(NC(=O)Cn3cnnn3)cc2C1=O,inactive,inactive,inactive
CCN(CC)CCNC(=O)COc1ccc(OC)cc1.Cl,inactive,inactive,inactive
CC(=O)N[C@H]1C(=O)Nc2ccc(F)cc21,inactive,inactive,inactive
C[C@@H]1CCCCO[C@@H](CN(C)C(=O)Nc2cccc3ccccc23)[C@H](C)CN([C@@H](C)CO)C(=O)c2cc(NC(=O)C3CCCCC3)ccc2O1,inactive,inactive,inactive
COCC#Cc1ccc2c(c1)O[C@H](CN(C)C(=O)CN(C)C)[C@H](C)CN([C@H](C)CO)S2(=O)=O,inactive,inactive,inactive
C[C@H]1CN([C@@H](C)CO)C(=O)Cc2cc(NC(=O)CCC(F)(F)F)ccc2O[C@@H]1CN(C)C(=O)Nc1ccc(C(F)(F)F)cc1,inactive,inactive,inactive
COc1ccc(S(=O)(=O)Nc2ccc3c(c2)C(=O)N([C@H](C)CO)C[C@@H](C)[C@@H](CN(C)Cc2ccccc2)OCCCC[C@H](C)O3)cc1,inactive,inactive,inactive
O=C1CNC(=O)N1CC1CCNCC1,inactive,inactive,inactive
C[C@H]1CN([C@@H](C)CO)C(=O)c2cccc(NS(=O)(=O)c3cccs3)c2O[C@@H]1CN(C)Cc1ccc(-c2ccccc2)cc1,inactive,inactive,inactive
C[C@@H]1CN([C@H](C)CO)C(=O)Cc2cc(NC(=O)C3CC3)ccc2O[C@H]1CN(C)C(=O)Nc1ccc(F)cc1,inactive,inactive,inactive
Cc1noc(C)c1S(=O)(=O)Nc1cccc2c1O[C@H](CN(C)CC1CC1)[C@H](C)CN([C@@H](C)CO)C2=O,inactive,inactive,inactive
C[C@@H]1CN([C@@H](C)CO)C(=O)c2cccc(NC(=O)c3cnccn3)c2O[C@@H]1CN(C)S(=O)(=O)c1ccc(Cl)cc1,inactive,inactive,inactive
Cc1cccc(NC(=O)Nc2ccc3c(c2)C(=O)N(C)[C@H]2CC[C@@H](CC(=O)NCc4ccccc4Cl)O[C@@H]2CO3)c1,inactive,inactive,inactive
C[C@@H]1CCCCO[C@@H](CN(C)S(=O)(=O)c2cccs2)[C@H](C)CN([C@H](C)CO)C(=O)c2cc(NC(=O)Nc3ccc(F)cc3)ccc2O1,inactive,inactive,inactive
O=S(=O)(NCC[C@H]1CC[C@H](NS(=O)(=O)c2cccc(Cl)c2)[C@H](CO)O1)c1cccc(F)c1,inactive,inactive,inactive
O=C(C[C@H]1C[C@@H]2c3cc(NC(=O)c4ccc5c(c4)OCO5)ccc3O[C@@H]2[C@H](CO)O1)NCC(F)(F)F,inactive,inactive,inactive

Compound,cytotoxicity call (HSkMC),cytotoxicity call (HepG2),growth inhibition call (S. aureus RN4220)
COc1ccc(NC(=O)Nc2ccc3c(c2)C(=O)N([C@H](C)CO)C[C@H](C)[C@H](CN(C)Cc2ccc(Cl)c(Cl)c2)OCCCC[C@@H](C)O3)cc1,inactive,inactive,inactive
CCCNC(=O)N1C[C@H](C)[C@H](OC)CN(C)C(=O)c2cc(NS(=O)(=O)CC(F)(F)F)ccc2OC[C@@H]1C,inactive,inactive,inactive
CC(C)NC(=O)Nc1cccc2c1O[C@H](CN(C)Cc1ccc(-c3ccccc3)cc1)[C@@H](C)CN([C@H](C)CO)C2=O,inactive,inactive,inactive
C[C@@H]1CCCCO[C@H](CN(C)C(=O)Cc2ccccc2)[C@@H](C)CN([C@H](C)CO)C(=O)c2cc(NS(=O)(=O)c3ccc(Cl)cc3)ccc2O1,inactive,inactive,inactive
O=C(C[C@H]1C=C[C@@H](NS(=O)(=O)c2ccc(F)cc2)[C@H](CO)O1)NCc1ccc(Cl)c(Cl)c1,inactive,inactive,inactive
COc1ccc(S(=O)(=O)N(C)C[C@@H]2Oc3ccc(NS(=O)(=O)c4cn(C)cn4)cc3CC(=O)N([C@H](C)CO)C[C@H]2C)cc1,inactive,inactive,inactive
Cc1ccc(S(=O)(=O)N(C)C[C@H]2OCCCC[C@H](C)Oc3ccc(NC(=O)CCC(F)(F)F)cc3C(=O)N([C@@H](C)CO)C[C@H]2C)cc1,inactive,inactive,inactive
NNC(=O)CNC(=O)[C@H]1COc2ccccc2O1,inactive,inactive,inactive
C[C@H](CO)N1C[C@H](C)[C@H](CN(C)S(=O)(=O)c2cn(C)cn2)Oc2ccc(NC(=O)Nc3ccc(F)cc3)cc2CC1=O,inactive,inactive,inactive
COc1c(O)cc(O)cc1O,inactive,inactive,inactive
CN(C)Cc1cn(CC[C@@H]2CC[C@@H](NC(=O)Cc3cccnc3)[C@@H](CO)O2)nn1,inactive,inactive,inactive
COc1ccc(S(=O)(=O)Nc2cccc3c2O[C@@H](CN(C)C(=O)Nc2cccc4ccccc24)[C@H](C)CN([C@@H](C)CO)C3=O)cc1,inactive,active,inactive
C[C@@H]1CN([C@H](C)CO)C(=O)c2cccc(NC(=O)Nc3ccc(C(F)(F)F)cc3)c2O[C@H]1CN(C)S(=O)(=O)c1ccc(F)cc1,inactive,inactive,inactive
C[C@H](CO)N1C[C@H](C)[C@H](CN(C)C(=O)Nc2ccc(F)cc2)Oc2ncc(Br)cc2C1=O,inactive,inactive,inactive
O=C(CSc1nnc[nH]1)C1CC1,inactive,inactive,inactive
COc1ccc(NC(=O)Nc2ccc3c(c2)C(=O)N([C@H](C)CO)C[C@H](C)[C@H](CN(C)S(=O)(=O)c2cccs2)OCCCC[C@H](C)O3)cc1,inactive,inactive,inactive
COc1ccc(S(=O)(=O)Nc2ccc3c(c2)CC(=O)N([C@H](C)CO)C[C@H](C)[C@@H](CN(C)S(=O)(=O)c2ccc(F)cc2)O3)cc1,inactive,inactive,inactive
Cc1noc(C)c1NC(=O)Nc1ccc2c(c1)C(=O)N([C@H](C)CO)C[C@H](C)[C@@H](CN(C)C(=O)c1ccccc1)OCCCC[C@H](C)O2,inactive,inactive,inactive
CNC[C@H]1OCCCC[C@H](C)Oc2ccc(NS(=O)(=O)c3cn(C)cn3)cc2C(=O)N([C@@H](C)CO)C[C@H]1C,inactive,inactive,inactive

Compound,cytotoxicity call (HSkMC),cytotoxicity call (HepG2),growth inhibition call (S. aureus RN4220)
O=C(C[C@@H]1CC[C@@H](NC(=O)C2CC2)[C@@H](CO)O1)NCCCN1CCOCC1,inactive,inactive,inactive
CO[C@H]1CN(C)C(=O)c2ccc(NC(=O)C3CC3)cc2OC[C@@H](C)N(C(=O)CN2CCOCC2)C[C@H]1C,inactive,inactive,inactive
COc1ccc(C(=O)Nc2cccc(CN3C(=O)[C@@]4(O[C@@H](CC(=O)N5CCC[C@H]5CO)[C@H]([Si](C)(C)c5ccc(OC)cc5)[C@H]4C)c4ccccc43)c2)cc1,inactive,inactive,inactive
C=CC[C@@H](CC(=O)N[C@@H](CO)Cc1ccccc1)C(=O)N[C@@H](C)COC(=O)[C@H](CC=C)CC(=O)OC(C)(C)C,inactive,inactive,inactive
O=C(NCc1ccccc1)c1cn[nH]n1,inactive,inactive,inactive
C[C@H]1CCCCO[C@H](CN(C)C(=O)Nc2ccc3c(c2)OCO3)[C@@H](C)CN([C@@H](C)CO)C(=O)c2cc(NC(=O)Nc3ccccc3)ccc2O1,inactive,inactive,inactive
COc1cccc(S(=O)(=O)N2C[C@@H](O)COC[C@@H]3O[C@H](CC(=O)N4CCN(c5ccccc5)CC4)CC[C@H]32)c1,inactive,inactive,inactive
CCOC(=O)C1CCN(S(=O)(=O)c2c(C)n(C)c(=O)n(C)c2=O)CC1,inactive,inactive,inactive
CN(C)CCN1CC2(CCN(C(=O)c3cnccn3)CC2)OCC1=O,inactive,inactive,inactive
C[C@@H]1CN([C@H](C)CO)S(=O)(=O)c2ccc(Br)cc2O[C@@H]1CN(C)S(=O)(=O)c1ccccc1,inactive,inactive,inactive
C[C@H](CO)N1C[C@H](C)[C@@H](CN(C)S(=O)(=O)c2cccc(F)c2)Oc2ncc(-c3cccc(C(=O)N(C)C)c3)cc2C1=O,inactive,inactive,inactive
Cc1noc(C)c1S(=O)(=O)Nc1cccc2c1O[C@H](CN(C)Cc1ccncc1)[C@H](C)CN([C@@H](C)CO)C2=O,inactive,inactive,inactive
COCC#Cc1ccc2c(c1)O[C@H](CN(C)S(=O)(=O)c1ccc(C)cc1)[C@@H](C)CN([C@H](C)CO)S2(=O)=O,inactive,inactive,inactive
CCn1cc(C2=NO[C@H](C(=O)O)C2)c(C)n1,inactive,inactive,inactive
Cc1noc(C)c1S(=O)(=O)Nc1ccc2c(c1)C(=O)N([C@H](C)CO)C[C@@H](C)[C@H](CN(C)Cc1ccc(C(=O)O)cc1)O2,inactive,inactive,inactive
COC(=O)[C@H](Cc1ccc(-n2cc(CCC(=O)NO)nn2)cc1)N1CC2=C[C@H]([C@@H](O)Cc3ccccc3)n3c(=O)n(C)c(=O)n3[C@@H]2[C@@H](C2CC2)O1,inactive,inactive,inactive
Cc1ccc(Cn2nnc3c(=O)n(CC(N)=O)cnc32)cc1,inactive,inactive,inactive
C[C@H](CO)N1C[C@H](C)[C@@H](CN(C)S(=O)(=O)c2ccc(F)cc2)Oc2ncc(C#CC3(O)CCCC3)cc2C1=O,inactive,inactive,inactive
